Assay results taken from article PMC6919601, “Identification of Plasmodium dipeptidyl aminopeptidase allosteric inhibitors by high throughput screening” (PLoS ONE, 2019).
Out of some 110,000 compounds screened, about 230 (0.21%) showed an effect of 50% or more. This is one part of the list.

Molecular target: DPAP1 (Plasmodium falciparum, UniProt Q8IIJ9)
Experiment: primary screen, percent inhibition; read by cleavage of a fluorogenic dipeptide substrate; higher = more effect of the substance
Set-up: species or system P. falciparum D10 trophozoite lysates; single well
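Note: 30 min substrate incubation versus DMSO and 10 µM JCP410 controls.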

Sequence of DPAP1 (Q8IIJ9 whole entry, looked up): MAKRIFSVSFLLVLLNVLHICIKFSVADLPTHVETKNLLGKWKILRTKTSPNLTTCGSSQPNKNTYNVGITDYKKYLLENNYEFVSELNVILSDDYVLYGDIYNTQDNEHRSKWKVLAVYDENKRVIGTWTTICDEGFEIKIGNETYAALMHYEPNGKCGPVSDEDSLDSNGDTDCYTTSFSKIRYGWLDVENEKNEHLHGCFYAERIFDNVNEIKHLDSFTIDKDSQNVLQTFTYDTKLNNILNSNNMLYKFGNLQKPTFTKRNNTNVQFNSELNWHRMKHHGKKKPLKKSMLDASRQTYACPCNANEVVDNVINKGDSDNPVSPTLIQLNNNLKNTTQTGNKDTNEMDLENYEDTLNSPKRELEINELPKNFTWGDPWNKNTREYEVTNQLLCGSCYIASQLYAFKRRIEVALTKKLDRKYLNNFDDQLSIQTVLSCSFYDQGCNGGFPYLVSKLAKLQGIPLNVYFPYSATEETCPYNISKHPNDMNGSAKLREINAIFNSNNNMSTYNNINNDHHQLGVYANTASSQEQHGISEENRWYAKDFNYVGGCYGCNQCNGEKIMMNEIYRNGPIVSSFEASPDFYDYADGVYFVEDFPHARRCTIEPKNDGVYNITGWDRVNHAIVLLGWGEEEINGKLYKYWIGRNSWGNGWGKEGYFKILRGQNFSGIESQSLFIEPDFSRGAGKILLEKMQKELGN

| Compound | % Inhibition @ 10 uM [%] |
| --- | --- |
| Cc1ccc(-c2nc(NC(=O)CCCC(=O)O)sc2C)cc1 | -0.99 |
| CCN1C/C(=C\c2cccs2)C(=O)/C(=C/c2cccs2)C1 | 4.06 |
| Cc1cc(C)n2nc(NCc3cccs3)nc2n1 | -0.671 |
| CC1C(O)CC(c2ccc(Cl)cc2)NC1c1ccc(Cl)cc1 (stereo not shown) | -2.56 |
| CCC(C(=O)Nc1cc(C)ccc1O)c1ccccc1 (stereo not shown) | 0.528 |
| CN1CCCN(Cc2ccc([N+](=O)[O-])s2)CC1 | 4.81 |
| CCOC(=O)C1CCN(c2ccc([N+](=O)[O-])cn2)CC1 | -1.56 |
| O=C1c2ccc3c4c(ccc(c24)C(=O)N1CCO)C(=O)N(CCO)C3=O | 4.44 |
| Nc1ncc(Br)cc1S(=O)(=O)NCc1ccccc1Cl | 6.98 |
| Cc1cc(C)c(C#N)c(SCC(=O)c2ccc(O)c(O)c2)n1 | 2.01 |
| O=C(NC1CCC(CC2CCC(NC(=O)C3CCCO3)CC2)CC1)C1CCCO1 (stereo not shown) | 0.528 |
| CC1CCCCN1C(=O)CN(C)S(=O)(=O)c1cccc2nsnc12 (stereo not shown) | 0.317 |
| O=c1c2ccccc2nc2n1-c1ccccc1CCC2 | -3.49 |
| CCOCCCNC(=O)c1ccc(CS(=O)(=O)Cc2cccc(Cl)c2)o1 | -0.971 |
| CC(C)CC(=O)Nc1ccc(-c2nc3ncccc3o2)cc1 | -3.63 |
| CCOC(=O)c1c(N)n(-c2ccccc2OC)c2nc3ccccc3nc12 | 4.73 |
| Cc1cc(C(=O)O)c(C)n1Cc1ccccc1 | 3.24 |
| O=C(O)CNS(=O)(=O)c1ccc2c(c1)Cc1cc(S(=O)(=O)NCC(=O)O)ccc1-2 | 1.97 |
| CCOC(=O)C1=C(N)OC2=C(C(=O)CC(c3ccccc3)C2)C1c1cccc(OC)c1OC (stereo not shown) | 3.86 |
| CC1=C(C(=O)OCCOC(C)C)C(c2ccc(Cl)cc2Cl)CC(=O)N1 (stereo not shown) | -2.24 |
| CCCC(=O)NCc1nc2ccccc2n1CC(C)C | -7.33 |
| CC(C)C1Cc2c(c(S)sc(=N)c2C#N)CO1 (stereo not shown) | 30.6 |
| CN1C(=O)C(=Cc2c[nH]c3ccccc23)C(=O)N(C)C1=S | -4.23 |
| CCC(C)NC(=O)C1c2cc(OC)c(OC)cc2C(=O)N(C)C1c1cccs1 (stereo not shown) | -1.31 |
| COc1ccccc1NC(=O)c1ccc2c(c1)C(=O)N(Cc1ccco1)C2=O | 4.64 |

| Compound | % Inhibition @ 10 uM [%] |
| --- | --- |
| Clc1ccc(N2CCN(C/C(Br)=C/c3ccccc3)CC2)cc1 | -4.95 |
| CCCCOC(=O)c1[nH]ncc1[N+](=O)[O-] | -4.08 |
| CC(C)c1cc(C(N)=O)c(NC(=O)Cc2c(Cl)cccc2Cl)s1 | -3.92 |
| CCNc1nc(OC(C(F)(F)F)C(F)(F)F)nc(N(c2ccccc2)c2ccccc2)n1 | -2.74 |
| O=C(Nc1cccnc1)C1OCCc2ccccc21 (stereo not shown) | -7.86 |
| CC(C)(C)c1ccc(C(=O)NCc2nnc(S)n2-c2ccccc2)cc1 | 3.06 |
| COc1ccc(C(=O)/C=C/c2cccs2)cc1 | 3.85 |
| NS(=O)(=O)c1ccc(CCNC(=O)c2csc3c2CCCC3)cc1 | 1.93 |
| Cc1nc2nc(-c3cccnc3)nn2c(C)c1Cl | 2.42 |
| CCOc1ccc(C(=O)n2cnc3cc(C)c(C)cc32)cc1 | 5.23 |
| COc1ccc2[nH]cc(CCNC(=O)NC3CCCCC3)c2c1 | -4.07 |
| COc1ccc(C2Nn3c(nnc3-c3ccccc3)SC2C(=O)N2CCCCC2)cc1Cl (stereo not shown) | 0.0289 |
| NC(=O)c1ccccc1NC(=O)COc1c(F)c(F)cc(F)c1F | -4.41 |
| N#C/C(=C(/O)c1cccc(F)c1)c1nc2ccccc2s1 | 4.3 |
| CC1CCc2c(sc3ncnc(SC(C)C(=O)O)c23)C1 (stereo not shown) | 4.18 |
| CC1CC(C)CN(c2nc3c(c(=O)n(C)c(=O)n3C)n2Cc2ccccc2Cl)C1 (stereo not shown) | -2.36 |
| OCC/N=C1\CCc2c1[nH]c1ccc(C3CCCCC3)cc21 | 1.26 |
| C1=CC2(CCN(Cc3cccnc3)CC2)c2ccccc21 | 4.9 |
| CC(C)NS(=O)(=O)c1ccc(CCC(=O)NCc2ccncc2)cc1 | -4.15 |
| CCc1ccc(-c2cc(C(F)(F)F)n3nc(C(=O)N(C)Cc4cnn(C)c4)cc3n2)s1 | -1.36 |
| CCN(CC)C(=O)COc1ccc(C2C(C#N)=C(N)Oc3[nH]nc(-c4ccc(C)cc4)c32)cc1OC (stereo not shown) | 4.99 |
| Cn1nc(C(=O)NC2CCN(Cc3ccccc3)CC2)c2c1-c1ccccc1S(=O)(=O)C2 | 1.23 |
| O=C1OC(c2cccc3ccccc23)=N/C1=C/c1cc(Br)cs1 | -0.0785 |
| Cc1cc(C)nc(SCC(=O)NC(C)c2ccccc2)n1 (stereo not shown) | 10.9 |
